In the supplement of paper PMC9433436:
± gives the standard deviation of the averaged measurements. Over roughly 4,100 sequences, “relative kcat/Km (krel) vs genomic leader AAAGAU” has its median near 1.7; the highest 2% begin near 6.5. The entries are a selection whose mix differs from that of the whole data set.

Biological target: T1, E. coli RNase P holoenzyme (M1 P RNA + rnpA protein) (UniProt P0A7Y8)
T1 sequence: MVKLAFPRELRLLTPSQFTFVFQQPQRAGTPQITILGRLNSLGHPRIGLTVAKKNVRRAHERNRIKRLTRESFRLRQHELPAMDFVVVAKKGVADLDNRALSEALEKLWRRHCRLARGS
Assay: relative kcat/Km (krel) vs genomic leader AAAGAU (relative (reference leader = 1)); higher = faster RNase P cleavage
Description: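 HTS-Kin: a pool of ptRNA-Met (21C construct) with all 4096 combinations of 5' leader nucleotides N(-6) to N(-1) was processed in vitro by E. coli RNase P (P RNA + rnpA/C5 protein) under multiple-turnover conditions at 37 C, pH 8, 17.5 mM MgCl2. Residual substrate was Illumina-sequenced at several fractions reacted, and relative kcat/Km (krel) was computed by internal competition kinetics, calibrated to the genomic leader (AAAGAU = 1). The listed hexamer is the varied N(-6)..N(-1) leader (DNA letters), and it sits between a fixed 5' stem-loop flank (GCAUGCACGAAAGUGCGUGCUAUGAA) and the mature tRNA-Met starting GGCUACGUAGCUCAGUUGG. Two technical replicates are averaged.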

[1] = fraction of substrate reacted: ~9-10% (9.79% repeat 1, 9.1% repeat 2)
[2] = fraction of substrate reacted: ~13-16% (15.68% repeat 1, 13.17% repeat 2)
[3] = fraction of substrate reacted: ~26-29% (28.66% repeat 1, 26.4% repeat 2)

Sequence	relative kcat/Km [1]	relative kcat/Km [2]	relative kcat/Km [3]
TAAAAG	1.83 ± 1.3	0.854 ± 0.14	2.39 ± 0.65
TCATAC	4.3 ± 0.51	5.72 ± 0.91	–
ACCCGT	1.55 ± 1.5	1.9 ± 1.9	1.96 ± 1.4
CATGCG	–	0.367 ± 0.28	0.698 ± 0.016
GCGCTA	–	0.59 ± 0.043	1.17 ± 0.39
AGCACT	1.86 ± 0.89	–	2.23 ± 0.84
ACGTCA	1.77 ± 0.7	2.15 ± 0.55	2.79 ± 1.2
AATATC	1.63 ± 0.61	1.67 ± 0.073	2.18 ± 0.7
GTATAC	3.66 ± 2.2	4.72 ± 0.97	6.65 ± 2.7
GATCTC	1.37 ± 0.23	1.37 ± 0.5	2.07 ± 0.39
GTCTTG	2.05 ± 1.9	1.96 ± 0.21	3.58 ± 0.69
GTAAAA	1.7 ± 1.3	1.99 ± 0.54	2.88 ± 0.32
AAGGCT	–	–	1.05 ± 0.71
CACGCA	2.14 ± 0.48	3.31 ± 1.5	4.91 ± 1.6
TTAGCA	0.98 ± 0.024	1.55 ± 0.12	2.26 ± 1.1
CGATCT	1.67 ± 1.1	2.87 ± 1.8	4.11 ± 1.9
TAAACG	1.36 ± 1.2	–	1.52 ± 0.4
ATCTAT	3.93 ± 1.4	5.38 ± 1	–
TATCAG	2.12 ± 2.1	1.76 ± 0.033	3.25 ± 1.1
GGGCCT	0.773 ± 0.081	0.888 ± 0.77	1.13 ± 0.44
CTGAGA	–	1.85 ± 0.35	2.05 ± 0.27
CAACTA	1.32 ± 0.84	0.424 ± 0.32	1.1 ± 0.37
CAAAGA	2.63 ± 1.1	1.78 ± 0.057	3.03 ± 0.49

Sequence	relative kcat/Km [1]	relative kcat/Km [2]	relative kcat/Km [3]
CTTGTG	–	–	0.748 ± 0.26
TGGTTT	–	–	1.22 ± 0.7
ATTGAC	2.74 ± 0.31	3.01 ± 0.55	4.33 ± 1.6
CTTGAG	1.11 ± 0.75	–	1.36 ± 0.41
GGCGAA	2.38 ± 1.1	2.86 ± 0.39	3.85 ± 1.4
TTACTA	1.45 ± 1.2	1.28 ± 0.5	2.33 ± 0.77
TGCTAC	2.42 ± 1.5	2.16 ± 0.89	4.62 ± 2.6
CCTGAC	1.9 ± 0.12	2.19 ± 0.76	3.67 ± 1.8
ATCGCC	4.35 ± 0.56	5.34 ± 2	7.69 ± 3
CTATGA	3.21 ± 0.41	3.33 ± 0.2	5.58 ± 1.9
TAGAGC	0.945 ± 0.65	1.76 ± 0.038	2.28 ± 0.22
CGAGTT	0.554 ± 0.28	0.719 ± 0.2	–
GTCACG	–	1.84 ± 0.86	3.97 ± 0.54
ATGATA	1.42 ± 0.71	0.856 ± 0.28	1.7 ± 0.84
ATAACC	1.4 ± 0.97	1.05 ± 0.42	1.37 ± 0.052
TTAACG	0.394 ± 0.1	–	0.816 ± 0.016
AATAAG	–	0.98 ± 0.26	2.36 ± 0.67
CGGAAT	0.343 ± 0.096	0.823 ± 0.49	1.11 ± 0.047
GCTTTT	1.48 ± 0.18	2.05 ± 0.041	2.78 ± 1
GGCCAG	–	0.781 ± 0.14	2.04 ± 0.3
TAGACA	1.73 ± 0.61	2.047 ± 0.0097	3.05 ± 1.7
GGGCGC	0.727 ± 0.11	0.511 ± 0.34	1.24 ± 0.14
ATATCC	2.49 ± 2.1	2.13 ± 0.23	2.56 ± 0.59

Sequence	relative kcat/Km [1]	relative kcat/Km [2]	relative kcat/Km [3]
GGGTCA	–	–	0.848 ± 0.71
CGACTA	1.64 ± 0.35	1.27 ± 0.55	1.8 ± 0.51
ACTAGG	–	–	0.408 ± 0.15
TTCGGC	–	–	2.28 ± 1.8
GGTGCC	–	0.824 ± 0.51	0.763 ± 0.43
CTAAGA	2.095 ± 0.0059	1.72 ± 1.1	3.49 ± 2
CGGATA	1.24 ± 0.28	0.89 ± 0.2	1.22 ± 0.66
CATTTA	2.8 ± 1.2	2.69 ± 0.1	3.9 ± 1.3
TGCTCC	2.19 ± 0.87	2.31 ± 0.43	2.87 ± 0.78
GGGGAA	–	0.688 ± 0.52	1.27 ± 0.81
ACTACG	–	–	1.48 ± 0.089
TCGTGA	2.52 ± 0.93	1.89 ± 0.23	3.79 ± 1.2
ACAAAG	–	0.516 ± 0.21	1.39 ± 0.37
CTGGCA	–	0.28 ± 0.23	–
CCCGCA	3.38 ± 0.43	3.43 ± 1.2	4.58 ± 1.4
TGCAAG	–	–	1.57 ± 0.045
CATGTA	1.86 ± 0.024	1.84 ± 0.26	2.19 ± 0.65
AATCCA	1.48 ± 1.2	0.978 ± 0.48	1.64 ± 0.25
GATGAT	–	0.7562 ± 0.0044	1.46 ± 0.9
CTAATA	1.84 ± 1.2	1.41 ± 0.16	2.03 ± 0.38
CCTGAA	1.27 ± 0.34	1.81 ± 0.17	2.41 ± 1.2
AGAGTT	–	1.16 ± 0.89	1.02 ± 0.045
